Test results as given in PMC4265758.
These are yes or no findings as the source states them, for the method shown. In cells and extracts the contact can be indirect. Some binding calls cover weakened binding; strength is not graded here. For part of these data: Tags and fused reporters may be left off the sequences shown. Each block holds one substance with its values, some of them ahead of it.

Sequences of proteins named here, by UniProt entry; tags and fusion partners are left off.
UniProt Q8C5L3: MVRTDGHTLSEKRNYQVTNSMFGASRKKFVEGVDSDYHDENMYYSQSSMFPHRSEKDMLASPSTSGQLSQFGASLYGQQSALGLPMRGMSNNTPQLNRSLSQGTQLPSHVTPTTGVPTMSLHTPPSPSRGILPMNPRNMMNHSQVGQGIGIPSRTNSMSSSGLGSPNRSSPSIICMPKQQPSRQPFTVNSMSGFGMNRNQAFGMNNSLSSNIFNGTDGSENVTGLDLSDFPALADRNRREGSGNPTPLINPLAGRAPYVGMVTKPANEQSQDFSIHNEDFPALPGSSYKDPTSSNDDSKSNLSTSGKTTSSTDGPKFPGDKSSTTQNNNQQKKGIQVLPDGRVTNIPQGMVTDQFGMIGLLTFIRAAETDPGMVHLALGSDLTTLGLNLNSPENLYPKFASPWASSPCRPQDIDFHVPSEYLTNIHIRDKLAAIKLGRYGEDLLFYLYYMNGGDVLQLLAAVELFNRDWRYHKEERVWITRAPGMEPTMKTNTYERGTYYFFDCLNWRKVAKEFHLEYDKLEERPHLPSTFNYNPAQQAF
UniProt Q8K0V4: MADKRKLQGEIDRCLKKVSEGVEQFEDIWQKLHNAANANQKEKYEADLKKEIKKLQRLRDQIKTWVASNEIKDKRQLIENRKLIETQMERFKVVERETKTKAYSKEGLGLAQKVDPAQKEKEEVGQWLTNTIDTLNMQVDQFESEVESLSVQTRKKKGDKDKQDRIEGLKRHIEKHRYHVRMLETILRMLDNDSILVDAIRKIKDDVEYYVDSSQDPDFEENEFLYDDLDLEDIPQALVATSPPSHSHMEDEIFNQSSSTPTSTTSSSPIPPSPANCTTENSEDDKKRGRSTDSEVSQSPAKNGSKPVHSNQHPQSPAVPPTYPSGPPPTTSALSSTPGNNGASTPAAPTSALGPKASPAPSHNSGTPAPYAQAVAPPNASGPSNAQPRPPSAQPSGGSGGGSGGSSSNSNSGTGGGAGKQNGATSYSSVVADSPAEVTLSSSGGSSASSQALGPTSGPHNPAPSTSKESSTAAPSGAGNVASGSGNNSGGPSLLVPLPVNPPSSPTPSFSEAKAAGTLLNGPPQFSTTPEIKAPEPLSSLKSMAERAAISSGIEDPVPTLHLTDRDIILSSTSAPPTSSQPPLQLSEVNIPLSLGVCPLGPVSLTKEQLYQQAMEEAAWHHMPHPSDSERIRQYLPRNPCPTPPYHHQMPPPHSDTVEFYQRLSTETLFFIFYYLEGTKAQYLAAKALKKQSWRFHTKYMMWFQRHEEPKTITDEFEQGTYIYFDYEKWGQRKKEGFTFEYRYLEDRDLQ
UniProt Q8K3P5: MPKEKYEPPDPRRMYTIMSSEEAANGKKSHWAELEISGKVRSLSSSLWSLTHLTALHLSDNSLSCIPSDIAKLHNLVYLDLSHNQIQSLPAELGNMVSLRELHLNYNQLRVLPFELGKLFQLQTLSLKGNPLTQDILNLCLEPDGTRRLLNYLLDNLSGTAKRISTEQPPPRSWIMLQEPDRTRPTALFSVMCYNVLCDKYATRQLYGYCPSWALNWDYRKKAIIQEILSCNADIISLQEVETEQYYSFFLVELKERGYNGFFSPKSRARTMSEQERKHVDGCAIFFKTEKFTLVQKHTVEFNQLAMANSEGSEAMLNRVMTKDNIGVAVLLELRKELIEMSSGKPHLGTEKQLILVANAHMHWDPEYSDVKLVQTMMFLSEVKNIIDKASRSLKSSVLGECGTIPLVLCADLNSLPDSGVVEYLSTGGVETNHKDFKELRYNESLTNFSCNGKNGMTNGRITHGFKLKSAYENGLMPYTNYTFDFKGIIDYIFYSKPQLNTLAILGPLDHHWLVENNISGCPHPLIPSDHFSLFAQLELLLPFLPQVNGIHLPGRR
UniProt Q60809: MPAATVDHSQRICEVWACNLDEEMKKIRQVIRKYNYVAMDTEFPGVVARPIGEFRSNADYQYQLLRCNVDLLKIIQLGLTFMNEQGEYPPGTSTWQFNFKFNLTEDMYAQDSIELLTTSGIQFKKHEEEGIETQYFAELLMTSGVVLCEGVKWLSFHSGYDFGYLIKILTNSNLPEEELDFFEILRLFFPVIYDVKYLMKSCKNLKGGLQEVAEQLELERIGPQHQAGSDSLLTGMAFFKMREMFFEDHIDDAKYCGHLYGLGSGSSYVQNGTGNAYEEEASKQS
UniProt Q9JKY0: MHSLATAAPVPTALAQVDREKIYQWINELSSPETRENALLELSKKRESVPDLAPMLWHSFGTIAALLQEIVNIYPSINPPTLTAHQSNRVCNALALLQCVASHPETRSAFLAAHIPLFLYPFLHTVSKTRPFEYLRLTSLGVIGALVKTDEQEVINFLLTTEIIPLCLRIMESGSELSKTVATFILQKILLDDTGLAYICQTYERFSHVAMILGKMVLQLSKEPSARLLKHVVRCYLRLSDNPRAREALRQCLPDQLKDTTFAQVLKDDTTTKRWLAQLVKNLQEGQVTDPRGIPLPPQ
UniProt P60324: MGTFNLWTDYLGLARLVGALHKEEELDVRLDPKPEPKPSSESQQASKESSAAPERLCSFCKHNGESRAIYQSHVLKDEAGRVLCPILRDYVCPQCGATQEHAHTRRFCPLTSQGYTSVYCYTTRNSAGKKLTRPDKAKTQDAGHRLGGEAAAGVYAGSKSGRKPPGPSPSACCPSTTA
UniProt A5YKK6: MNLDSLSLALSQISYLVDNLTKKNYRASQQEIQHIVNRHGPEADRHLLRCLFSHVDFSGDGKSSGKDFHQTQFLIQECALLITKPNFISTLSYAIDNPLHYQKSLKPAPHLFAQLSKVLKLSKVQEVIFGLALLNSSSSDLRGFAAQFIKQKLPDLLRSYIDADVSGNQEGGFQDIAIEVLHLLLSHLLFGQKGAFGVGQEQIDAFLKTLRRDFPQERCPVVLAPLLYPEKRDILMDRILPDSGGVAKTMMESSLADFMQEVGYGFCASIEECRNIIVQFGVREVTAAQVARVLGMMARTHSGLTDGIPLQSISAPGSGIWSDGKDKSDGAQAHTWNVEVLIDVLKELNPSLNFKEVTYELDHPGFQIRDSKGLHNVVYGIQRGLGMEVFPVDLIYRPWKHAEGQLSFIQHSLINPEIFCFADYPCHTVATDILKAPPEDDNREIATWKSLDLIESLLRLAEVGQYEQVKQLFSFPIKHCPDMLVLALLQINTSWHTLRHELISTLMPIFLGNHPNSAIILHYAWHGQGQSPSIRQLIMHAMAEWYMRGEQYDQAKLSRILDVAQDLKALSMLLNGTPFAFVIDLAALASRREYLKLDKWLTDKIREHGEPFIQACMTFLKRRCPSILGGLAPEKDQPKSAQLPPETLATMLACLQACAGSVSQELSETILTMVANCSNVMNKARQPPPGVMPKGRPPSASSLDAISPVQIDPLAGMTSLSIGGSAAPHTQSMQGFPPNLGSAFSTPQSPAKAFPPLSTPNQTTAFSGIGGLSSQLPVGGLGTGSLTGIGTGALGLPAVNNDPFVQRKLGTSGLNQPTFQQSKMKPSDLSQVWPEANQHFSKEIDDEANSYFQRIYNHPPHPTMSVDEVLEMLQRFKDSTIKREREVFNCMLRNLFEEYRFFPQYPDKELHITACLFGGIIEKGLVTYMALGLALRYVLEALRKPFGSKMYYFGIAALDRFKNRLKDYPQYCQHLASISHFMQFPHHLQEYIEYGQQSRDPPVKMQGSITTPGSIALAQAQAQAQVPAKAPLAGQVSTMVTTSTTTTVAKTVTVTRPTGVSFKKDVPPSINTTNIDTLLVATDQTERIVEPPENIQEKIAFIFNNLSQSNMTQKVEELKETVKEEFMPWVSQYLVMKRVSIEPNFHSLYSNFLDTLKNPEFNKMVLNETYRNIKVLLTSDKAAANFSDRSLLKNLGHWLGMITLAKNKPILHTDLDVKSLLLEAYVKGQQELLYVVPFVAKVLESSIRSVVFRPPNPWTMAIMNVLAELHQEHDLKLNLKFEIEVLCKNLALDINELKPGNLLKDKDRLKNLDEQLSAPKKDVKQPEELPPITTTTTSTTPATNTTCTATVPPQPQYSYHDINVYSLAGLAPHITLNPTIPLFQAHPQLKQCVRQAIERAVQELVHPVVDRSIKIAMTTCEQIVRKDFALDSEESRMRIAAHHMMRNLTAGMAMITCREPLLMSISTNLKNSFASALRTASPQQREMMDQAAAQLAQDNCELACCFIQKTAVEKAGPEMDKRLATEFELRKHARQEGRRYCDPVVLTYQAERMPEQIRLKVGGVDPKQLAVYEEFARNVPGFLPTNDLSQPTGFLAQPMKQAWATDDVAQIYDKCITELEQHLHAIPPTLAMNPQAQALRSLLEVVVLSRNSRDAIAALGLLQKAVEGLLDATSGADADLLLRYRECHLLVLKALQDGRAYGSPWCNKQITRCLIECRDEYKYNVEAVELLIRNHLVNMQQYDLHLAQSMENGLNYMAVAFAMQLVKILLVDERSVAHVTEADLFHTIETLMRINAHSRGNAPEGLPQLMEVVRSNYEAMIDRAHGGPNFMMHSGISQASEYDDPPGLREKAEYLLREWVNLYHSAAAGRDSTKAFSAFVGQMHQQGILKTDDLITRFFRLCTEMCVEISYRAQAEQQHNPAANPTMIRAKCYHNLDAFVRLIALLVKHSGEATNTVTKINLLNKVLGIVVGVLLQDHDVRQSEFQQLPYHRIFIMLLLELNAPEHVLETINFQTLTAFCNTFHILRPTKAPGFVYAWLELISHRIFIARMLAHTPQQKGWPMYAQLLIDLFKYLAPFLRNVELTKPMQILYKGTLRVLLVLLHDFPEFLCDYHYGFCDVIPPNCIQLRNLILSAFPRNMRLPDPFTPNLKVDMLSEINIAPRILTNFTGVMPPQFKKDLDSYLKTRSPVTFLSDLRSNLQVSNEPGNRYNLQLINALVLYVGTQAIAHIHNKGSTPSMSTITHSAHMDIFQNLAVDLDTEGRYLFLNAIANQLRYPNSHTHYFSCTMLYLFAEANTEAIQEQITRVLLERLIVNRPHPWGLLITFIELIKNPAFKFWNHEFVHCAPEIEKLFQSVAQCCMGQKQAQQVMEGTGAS
UniProt O75175: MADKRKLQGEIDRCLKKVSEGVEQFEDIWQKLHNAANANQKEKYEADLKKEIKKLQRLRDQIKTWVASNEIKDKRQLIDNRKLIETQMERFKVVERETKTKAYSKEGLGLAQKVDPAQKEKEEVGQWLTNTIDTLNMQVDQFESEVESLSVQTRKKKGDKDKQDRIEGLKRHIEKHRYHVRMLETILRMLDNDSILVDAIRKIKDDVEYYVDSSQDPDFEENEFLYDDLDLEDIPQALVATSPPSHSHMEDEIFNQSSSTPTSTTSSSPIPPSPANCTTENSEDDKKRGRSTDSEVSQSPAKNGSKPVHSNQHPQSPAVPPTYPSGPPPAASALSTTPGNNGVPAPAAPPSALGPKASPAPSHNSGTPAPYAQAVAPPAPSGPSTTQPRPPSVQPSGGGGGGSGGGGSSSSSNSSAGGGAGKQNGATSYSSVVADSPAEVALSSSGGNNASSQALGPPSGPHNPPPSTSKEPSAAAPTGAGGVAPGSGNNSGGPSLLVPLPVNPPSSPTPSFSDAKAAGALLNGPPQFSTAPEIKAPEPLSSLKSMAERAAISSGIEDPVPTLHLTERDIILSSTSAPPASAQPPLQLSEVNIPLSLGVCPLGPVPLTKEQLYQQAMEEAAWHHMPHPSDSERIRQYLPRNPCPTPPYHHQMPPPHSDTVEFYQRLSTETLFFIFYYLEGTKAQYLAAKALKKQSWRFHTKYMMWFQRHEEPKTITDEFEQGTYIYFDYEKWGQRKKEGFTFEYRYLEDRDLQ
UniProt Q9UIV1: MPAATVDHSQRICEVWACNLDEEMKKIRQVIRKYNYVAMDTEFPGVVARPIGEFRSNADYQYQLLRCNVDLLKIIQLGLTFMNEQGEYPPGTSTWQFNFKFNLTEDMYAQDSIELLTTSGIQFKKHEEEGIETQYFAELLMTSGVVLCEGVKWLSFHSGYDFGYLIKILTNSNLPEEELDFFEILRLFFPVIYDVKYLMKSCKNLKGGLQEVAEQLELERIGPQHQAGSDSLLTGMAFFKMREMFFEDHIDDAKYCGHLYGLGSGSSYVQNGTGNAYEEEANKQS
UniProt Q9UFF9: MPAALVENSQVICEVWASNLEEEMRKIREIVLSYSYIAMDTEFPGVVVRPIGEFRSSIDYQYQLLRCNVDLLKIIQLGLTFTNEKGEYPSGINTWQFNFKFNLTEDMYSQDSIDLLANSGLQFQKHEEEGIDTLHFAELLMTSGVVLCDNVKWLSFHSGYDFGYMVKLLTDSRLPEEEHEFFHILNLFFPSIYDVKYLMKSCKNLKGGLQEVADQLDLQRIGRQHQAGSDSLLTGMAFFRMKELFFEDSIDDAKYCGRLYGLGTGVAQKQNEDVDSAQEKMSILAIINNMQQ

Experiments:
[1] = target: GST-fused CNOT10 (UniProt Q8BH15); assay: pull-down; protein extracts from E. coli expressing GST-fused CNOT proteins combined with MBP-NANOS3; precipitated with glutathione sepharose; CNOT proteins seen by Coomassie staining, co-precipitated MBP-NANOS3 by western blotting; only the binder purified
[2] = target: GST-fused CNOT2 (UniProt Q8C5L3); assay: as above
[3] = target: GST-fused CNOT3 (UniProt Q8K0V4); assay: as above
[4] = target: T1, GST-fused CNOT4 (UniProt Q8BT14); assay: as above
T1 sequence: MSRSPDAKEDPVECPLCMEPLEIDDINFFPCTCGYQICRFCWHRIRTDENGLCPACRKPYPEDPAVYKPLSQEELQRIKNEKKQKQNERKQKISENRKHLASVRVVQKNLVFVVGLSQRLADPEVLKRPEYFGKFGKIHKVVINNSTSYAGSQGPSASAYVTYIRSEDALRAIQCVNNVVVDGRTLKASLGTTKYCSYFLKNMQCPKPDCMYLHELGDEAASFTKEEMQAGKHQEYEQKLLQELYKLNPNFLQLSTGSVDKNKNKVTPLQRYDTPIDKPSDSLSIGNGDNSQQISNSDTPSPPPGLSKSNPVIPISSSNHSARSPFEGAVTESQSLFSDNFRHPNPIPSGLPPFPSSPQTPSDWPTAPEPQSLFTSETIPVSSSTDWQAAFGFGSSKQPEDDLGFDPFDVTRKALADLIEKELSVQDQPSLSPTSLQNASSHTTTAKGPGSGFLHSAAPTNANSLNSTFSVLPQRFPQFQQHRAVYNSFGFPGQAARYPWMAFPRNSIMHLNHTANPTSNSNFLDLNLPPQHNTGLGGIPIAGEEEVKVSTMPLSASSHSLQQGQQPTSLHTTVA

[5] = target: GST-fused CNOT6 (UniProt Q8K3P5); assay: as above
[6] = target: GST-fused CNOT6L (UniProt Q8VEG6); assay: as above
[7] = target: GST-fused CNOT7 (UniProt Q60809); assay: as above
[8] = target: GST-fused CNOT8 (UniProt Q9D8X5); assay: as above
[9] = target: GST-fused CNOT9 (UniProt Q9JKY0); assay: as above
[10] = target: Flag-tagged NANOS2 (mouse) (UniProt P60322); assay: co-IP; Flag-tagged NANOS protein transfected into HeLa cells, precipitated with anti-FLAG antibodies from cell extracts; endogenous CNOT proteins detected by western blotting
[11] = target: T2, Flag-tagged NANOS2-ZM (mouse) (UniProt P60322); assay: as above
T2 sequence: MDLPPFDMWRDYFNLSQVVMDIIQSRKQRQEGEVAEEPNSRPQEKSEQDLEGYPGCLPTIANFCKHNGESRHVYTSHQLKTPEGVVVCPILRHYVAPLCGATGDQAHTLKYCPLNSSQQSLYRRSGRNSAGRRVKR

[12] = target: Flag-tagged NANOS3 (mouse) (UniProt P60324); assay: as above

Substance: endogenous CNOT1 (from UniProt A5YKK6 1-2376)
binding [10]: binds
binding [11]: binds

Substance: endogenous CNOT3 (from UniProt O75175 1-753)
binding [10]: binds

Substance: endogenous CNOT7 (from UniProt Q9UIV1 1-285)
binding [10]: binds

Substance: endogenous CNOT9 (from UniProt Q92600 1-299)
binding [10]: binds

Results, then the substance that gave them:

binding [1]: no binding
binding [2]: no binding
binding [3]: no binding
binding [4]: no binding
binding [5]: no binding
binding [6]: no binding
binding [7]: no binding
binding [8]: binds
binding [9]: no binding
Substance: MBP-NANOS3 fusion protein (from UniProt P60324 1-178)

binding [12]: binds weakly
Substance: endogenous CNOT8 (from UniProt Q9UFF9 1-292)
